From PubChem BioAssay AID1159614 (National Center for Advancing Translational Sciences (NCATS), 2016)
Hit rate of the full screen: of about 45,000 compounds, about 65 (0.1%) were called active. The call rests on the fitted dose curve; in most records, active means well fitted activation curve with a large enough effect; inconclusive means small, poorly fitted or top-dose-only effect; inactive means no such curve, though single readings can be large or run the other way. The list shows a part of the results.

What follows are molecules tested against Galactocerebrosidase (Homo sapiens) (UniProt P54803) (assay: A Novel Cell-Based Assay to Identify Small Molecules for B -Galactocerebrosidase). Details: 145M-Twi-hGALC-G270D cells (Twitcher mouse brain line with human GALC G270D), HMU-beta-Gal fluorescence, 48 h; series mostly up to 57.5 µM; activation: at the top concentration.
How it was run: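 Mutant human GALC (G270D), stably expressed in a Twitcher mouse brain cell line lacking endogenous GALC, is measured in live-treated cells via 6-hexadecanoylamino-4-methylumbelliferyl-β-galactoside hydrolysis (0.1 mM final, pH 5.2) with fluorescent detection.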
Further: 0% is about no effect; nearly all actives have a fitted effect of over 65% in size.

UniProt P54803, sequence (P54803 whole entry, looked up): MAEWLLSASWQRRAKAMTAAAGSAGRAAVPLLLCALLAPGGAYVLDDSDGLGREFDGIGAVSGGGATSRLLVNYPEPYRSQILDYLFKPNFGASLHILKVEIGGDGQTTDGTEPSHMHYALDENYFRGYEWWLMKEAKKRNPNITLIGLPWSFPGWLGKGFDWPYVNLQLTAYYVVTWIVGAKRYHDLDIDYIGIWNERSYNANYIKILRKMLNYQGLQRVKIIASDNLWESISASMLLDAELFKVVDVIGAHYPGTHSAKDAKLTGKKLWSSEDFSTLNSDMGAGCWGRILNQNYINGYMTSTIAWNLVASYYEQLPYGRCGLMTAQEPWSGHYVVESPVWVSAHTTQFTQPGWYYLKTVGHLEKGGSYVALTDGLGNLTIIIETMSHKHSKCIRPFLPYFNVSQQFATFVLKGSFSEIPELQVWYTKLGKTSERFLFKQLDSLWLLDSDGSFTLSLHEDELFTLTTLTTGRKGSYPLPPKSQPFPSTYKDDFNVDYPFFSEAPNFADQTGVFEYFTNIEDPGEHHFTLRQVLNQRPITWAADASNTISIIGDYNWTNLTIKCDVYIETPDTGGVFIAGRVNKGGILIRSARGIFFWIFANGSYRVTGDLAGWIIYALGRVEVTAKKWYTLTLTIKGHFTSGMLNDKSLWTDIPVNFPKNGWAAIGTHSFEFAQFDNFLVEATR

| SMILES | activation |
| --- | --- |
| O=C(CSC1=Nc2ccccc2C2=NC(Cc3ccccc3)C(=O)N12)Nc1ccccc1C(F)(F)F (centres undefined) | inactive: -13.9% |
| COc1cc(NC(=O)C2CCN(S(=O)(=O)c3ccc4c(c3)oc(=O)n4C)CC2)cc(OC)c1 | inactive: -5.33% |
| COc1ccc(NC(=O)Cn2c(=O)oc3cc(S(=O)(=O)NCc4ccccc4)ccc32)c(OC)c1 | inactive: -10.4% |
| Cc1noc(-c2ccc(N3CCC(C)CC3)c([N+](=O)[O-])c2)n1 | inactive: -34.5% |
| CCCCN(C)CCCNC(=O)Cn1ncc2c3ccccc3n(Cc3ccccc3F)c2c1=O | inactive: -10.8% |
| CCOc1ccc(CN2C(=O)c3ccccc3Sc3ccc(C(=O)NC)cc32)cc1 | inactive: -17.3% |
| CC(C)NC(=O)Cn1c(=O)nc(-c2ccccc2F)c2cc(Cl)ccc21 | inactive: -7.06% |
| COC(=O)c1ccc2c(c1)N(CC(=O)Nc1cccc(Cl)c1C)C(=O)c1ccccc1S2 | inactive: -15% |
| Cc1cn2c(=O)cc(COc3ccccc3NC(=O)c3ccc(C(C)(C)C)cc3)nc2s1 | inactive: -11.1% |
| Cc1cccc(CNC(=O)c2oc3c(c2C)-c2nn(Cc4cccc(Cl)c4)cc2CC3)c1 | inactive: -9.33% |
| COCCNC(=O)c1cccc(Nc2nc3ccccc3n3nnnc23)c1 | inactive: -5.76% |
| CSc1ccc(CCNC(=O)c2ccc(CS(=O)(=O)c3ccc(Br)cc3)o2)cc1 | inactive: -3.28% |
| CCc1cccc(NC(=O)CCc2nc3cccnc3n2-c2ccccc2)c1 | inactive: -15.5% |
| CCOc1cc(CNC(=O)c2ccc3c(c2)N(C)C(=O)C2CCCCN32)cc(OCC)c1OCC (centres undefined) | inactive: -15.2% |
| Cc1ccc(-n2nc(C)c3c(C(=O)NCc4ccc(F)cc4)cc(C)nc32)cc1 | inactive: -15.3% |
| Cc1cccc(N2CC(C)Cn3c2nc2c3c(=O)n(CC(=O)O)c(=O)n2C)c1 (centres undefined) | inactive: -11.6% |
| COc1ccc(NC(=O)CCc2c(C)nc3c(c2C)c(=O)n(C)c(=O)n3C)cc1OC | inactive: 3.59% |
| O=C1N(Cc2cccc(C(F)(F)F)c2)c2ccccc2S(=O)(=O)N1c1cccc(Cl)c1 | inactive: -10% |
| COc1ccc(CNC(=O)c2cc3cc(S(=O)(=O)N4CCCCC4)ccc3n2C)c(OC)c1 | inactive: -10.2% |
| Cc1c(Cl)cccc1N1C(N)=C(C#N)C(c2cc(CN3CCOCC3)cs2)C2=C1CCCC2=O (centres undefined) | inactive: -2.76% |

| SMILES | activation |
| --- | --- |
| COc1ccc(NC(=O)CSc2nc(-c3cccs3)cc(C(F)(F)F)c2C#N)cc1 | inactive: -15% |
| O=c1c2sc3ccccc3c2n(Cc2cccc(C(F)(F)F)c2)c(=O)n1Cc1ccccc1 | inactive: -6.98% |
| CCOC(=O)N1CCc2c(sc(NCc3ccc(N(C)C)cc3)c2C(=O)Nc2ccc(OC)cc2)C1 | inactive: -11.1% |
| CC1CCc2c(sc(NC(=O)c3ccc(Cl)cc3Cl)c2C#N)C1 (centres undefined) | inactive: -13.5% |
| COCCNC(=O)CCc1c(C)nc2c(c(C)nn2-c2ccc(C)cc2)c1C | inactive: -14.5% |
| COc1ccc(CNC(=O)c2ccc3c(c2)N(Cc2ccccc2F)C(=O)c2ccccc2S3(=O)=O)cc1 | inactive: -6.73% |
| CCOc1ccc(NC(=O)c2c(NCc3sccc3C)sc3c2CCCCC3)cc1 | inactive: -22.9% |
| N#Cc1c(C(F)(F)F)cc(-c2cccs2)nc1SCC(=O)Nc1ccc(F)cc1 | inactive: -16.3% |
| Cc1cc(F)ccc1NC(=O)CN(C)S(=O)(=O)c1ccc(C(=O)N2CCOCC2)s1 | inactive: -15.9% |
| CCN(CC)C(=O)CSc1nc2cc3c(cc2c(=O)n1CCCCCC(=O)NCCc1ccc(OC)c(OC)c1)OCO3 | inactive: -9.18% |
| CCc1ccccc1NC(=O)CSC1=Nc2ccccc2C2=NC(Cc3ccccc3)C(=O)N12 (centres undefined) | inactive: -26.9% |
| O=C(CSc1nc2c([nH]c3ccccc32)c(=O)n1-c1ccc(F)cc1)NC1CCCCC1 | inactive: 6.91% |
| COc1ccc(OCc2ccc(-c3nc(C#N)c(N4CCN(c5cccc(Cl)c5)CC4)o3)o2)cc1 | inactive: -16.5% |
| O=C(COc1ccc([N+](=O)[O-])cc1)Nc1cccc2cccnc12 | inactive: -15.6% |
| CCCN(CCC)c1nc(-c2ccccc2F)nc2ccccc12 | inactive: -12.8% |
| COc1ccc(-c2nc(SCC(=O)c3ccc(OC)c(Br)c3)n[nH]2)cc1 | inactive: -6.61% |
| CCC(C(=O)OC)n1cnc2c(cnn2-c2ccc(F)cc2)c1=O (centres undefined) | inactive: -15.8% |
| O=c1[nH]c2ccccc2c(=O)n1CCCl | inactive: -13.2% |
| COc1cc(NC(=O)C2CCCN(S(=O)(=O)c3ccc4c(c3)CCCC(=O)N4)C2)cc(OC)c1 (centres undefined) | inactive: -19.6% |
| COc1cc(Cl)c(C)cc1NC(=O)Cn1ncc2c(=O)oc3ccccc3c21 | inactive: -10.9% |

| SMILES | activation |
| --- | --- |
| CCOc1cccc(C2c3[nH]c4ccccc4c3CCN2C(=O)CCC2CCCC2)c1 (centres undefined) | inactive: -1.63% |
| CCc1cccc(NC(=O)C2CCC(CNS(=O)(=O)c3csc(C(N)=O)c3)CC2)c1 (centres undefined) | inactive: -9.05% |
| CSc1ncc(Cl)c(C(=O)Nc2ccc(S(=O)(=O)N3CCCC(C)C3)cc2)n1 (centres undefined) | inactive: -13.1% |
| CCC(Sc1nc2nccnc2c(=O)n1Cc1ccc(F)cc1)C(=O)NC1CCCCC1 (centres undefined) | inactive: -9.59% |
| CCCC(=O)O[C@]1(C(=O)CO)CC[C@H]2[C@@H]3CCC4=CC(=O)CC[C@]4(C)[C@H]3[C@@H](O)C[C@@]21C | inactive: -3.71% |
| Cc1cccc(C(=O)NC(=O)Nc2ccc(-c3cc(C(F)(F)F)nn3-c3ccccc3)cc2)c1 | inactive: -6.17% |
| CCn1c(=O)cc(SCC(=O)NCc2ccccc2OC)c2ccccc21 | inactive: -16% |
| COc1ccc2cc(C(=O)NCc3ccc4c(c3)CCN4C(=O)c3ccccc3)[nH]c2c1 | inactive: -10.3% |
| COc1ccc(C(=O)Nc2ccc(OCc3cc(=O)n4ccsc4n3)cc2)cc1OC | inactive: -10.7% |
| Cc1cc(=O)n2nc(N3CCC(C(=O)NCc4ccccc4)CC3)sc2n1 | inactive: -5.82% |
| Cc1ccc(NC(=O)Cn2cnc3nc4c(cc3c2=O)CCCC4)cc1Cl | inactive: -30.4% |
| Cc1cc(NC(=O)NCc2ccc3c(c2)CCN3C(=O)c2ccccc2)ccc1Br | inactive: 5.04% |
| CCOc1ccc(S(=O)(=O)c2cn(Cc3ccccc3)c3ccc(OCC)cc3c2=O)cc1 | inactive: -5.11% |
| CC(C)(C)OC(=O)N1CCC(c2c(C(=O)NCc3ccco3)cnn2-c2ccccc2)CC1 | inactive: 15.8% |
| O=C(C1CCN(S(=O)(=O)c2cccc3nonc23)CC1)N1CCN(c2ccccc2F)CC1 | inactive: 0.426% |
| Cc1cc(C)c2c(=O)cc(C(=O)Nc3ccc(S(=O)(=O)N(C)Cc4ccccc4)cc3)oc2c1 | inactive: -7.86% |
| CCOC(=O)c1sc2ccccc2c1S(=O)(=O)N1CCN(c2cccc(C)c2C)CC1 | inactive: 0.75% |
| CCOC(=O)c1sc2ccccc2c1S(=O)(=O)N1CCN(c2cccc(OC)c2)CC1 | inactive: -5.29% |
| Cc1nn(-c2ccc(F)cc2)c(-n2cccc2)c1C(=O)NCCCN1CCN(c2cccc(Cl)c2)CC1 | inactive: -19.4% |
